This is an account of results in the supplement of paper PMC10723795.

The test system of the assay is RPE1. Put plainly: nucleolar normality score relative to DMSO (fraction of DMSO control); RPE1 is a non-cancer human cell line; higher = more normal nucleoli (less nucleolar stress). Conditions: 24 h.

Molecules are shown by their SMILES. Where a name gives a salt, the structure may show the parent alone. This is one part of the list.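 Rule for the calls: active = more than 2 SD below the DMSO mean: under 0.85 at 10 µM or 0.885 at 1 µM; inactive = the rest.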 Single values are uncertain, as repeats are few or missing.
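Note: fixed cells immunolabelled for nucleolin and UBF, 40 image fields per well in 384-well plates, per-cell score = nucleolin nucleolar/nucleoplasm intensity ratio divided by the matching UBF ratio.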

Turning to `O=C(O)C(=O)CBr` [Bromopyruvic acid], the nucleolar normality score by setting is: (1 µM) inactive: 1.05; (10 µM) inactive: 1.04.
Taken in the same sequence, the figures for `COC(=O)[C@@H](N)CCCNC(=N)N[N+](=O)[O-]` were inactive: 0.995 and inactive: 1.06.
Taken in the same sequence, the figures for `CC(C)(C)c1cc(C=C(C#N)C#N)cc(Br)c1O` were inactive: 0.99 and inactive: 1.08.
Taken in the same sequence, the figures for `CC(C)[C@]12O[C@H]1[C@@H]1O[C@]13[C@]1(O[C@H]1C[C@H]1C4=C(CC[C@@]13C)C(=O)OC4)[C@@H]2O` [Triptolide (PG490)] were active: 0.854 and inactive: 0.915.
As for `O=C(c1ccccc1O)c1[nH]c(Cl)c(Cl)c1-n1c(C(=O)c2ccccc2O)cc(Cl)c1Cl` [Marinopyrrole A (Maritoclax)], the nucleolar normality score is inactive: 0.973 (1 µM) and inactive: 0.984 (10 µM).
On to `Cn1c(CCCC(=O)O)nc2cc(N(CCCl)CCCl)ccc21` [Bendamustine HCl], for which the nucleolar normality score (1 µM) was inactive: 1.03 and the nucleolar normality score (10 µM) was inactive: 1.09.
For the molecule `O=[N+]([O-])C=Cc1ccc2c(c1)OCO2` [MNS (3,4-Methylenedioxy-β-nitrostyrene, MDBN)], the nucleolar normality score by setting is: (1 µM) inactive: 1.07; (10 µM) inactive: 0.921.
Regarding `COc1ccc(N(C(=O)Oc2c(C)cccc2C)c2ccnc(Nc3ccc(N4CCN(C)CC4)cc3)n2)c(OC)c1`, the nucleolar normality score by setting is: (1 µM) inactive: 0.998; (10 µM) inactive: 0.991.
Taken in the same sequence, the figures for `COC1=C[C@@H]2[C@@H]3Cc4ccc(OC)c(O)c4[C@]2(CCN3C)CC1=O` [Sinomenine hydrochloride] were inactive: 0.964 and inactive: 0.878.
Taken in the same sequence, the figures for `C/C(=C\c1csc(C)n1)[C@@H]1C[C@@H]2O[C@@H]2CCC[C@H](C)[C@H](O)[C@@H](C)C(=O)C(C)(C)[C@@H](O)CC(=O)O1` [Epothilone A] were active: 0.693 and active: 0.759.
Taken in the same sequence, the figures for `CC(O)(CS(=O)(=O)c1ccc(F)cc1)C(=O)Nc1ccc(C#N)c(C(F)(F)F)c1` (centres undefined) [Bicalutamide] were inactive: 1.04 and inactive: 1.09.
In the case of `CCN1CCN(C(=O)Cc2ccc(Nc3ncc(F)c(Nc4ccc(C(=O)Nc5ccccc5Cl)cc4)n3)cc2)CC1` [Aurora A Inhibitor I], the nucleolar normality score is inactive: 0.949 (1 µM) and inactive: 0.943 (10 µM).
As to `O=C([O-])C(Cl)Cl.[Na+]` [Sodium dichloroacetate (DCA)], the nucleolar normality score reads like this: (1 µM) inactive: 1.03; (10 µM) inactive: 0.991.
Taken in the same sequence, the figures for `CC(C)(C)c1cc(C=C(C#N)C#N)cc(C(C)(C)C)c1O` [Tyrphostin 9] were inactive: 1.03 and inactive: 1.04.
Taken in the same sequence, the figures for `O=C(O)c1nn(Cc2ccc(Cl)cc2Cl)c2ccccc12` [Lonidamine] were inactive: 1 and inactive: 1.06.
Regarding `COc1cc2c(c(OC)c1OC)-c1ccc(OC)c(=O)cc1[C@@H](NC(C)=O)CC2` [Colchicine], the nucleolar normality score (1 µM) was inactive: 0.958 and the nucleolar normality score (10 µM) is inactive: 0.977.
For the molecule `CC(=O)O[C@H]1CC[C@@]2(C)C(=CC[C@@H]3[C@@H]2CC[C@]2(C)C(=O)CC[C@@H]32)C1` [Dehydroepiandrosterone acetate], the nucleolar normality score (1 µM) was inactive: 0.977 and the nucleolar normality score (10 µM) is inactive: 0.997.
Take `COc1cc([C@@H]2c3cc4c(cc3[C@H](O)[C@H]3COC(=O)[C@H]23)OCO4)cc(OC)c1O` [4'-Demethylpodophyllotoxin]: the nucleolar normality score (1 µM) was inactive: 1.04 and the nucleolar normality score (10 µM) was inactive: 0.902.
Taken in the same sequence, the figures for `O=C(CBr)N1CC([N+](=O)[O-])([N+](=O)[O-])C1` were inactive: 0.888 and inactive: 1.03.
Taken in the same sequence, the figures for `COc1cc(C2c3cc4c(cc3C(O)C3COC(=O)C23)OCO4)cc(OC)c1O` (centres undefined) were inactive: 1.09 and inactive: 1.02.
In the case of `C=C1C[C@@H]2[C@H](CC[C@]3(C)C(=O)CC[C@@H]23)[C@@]2(C)C=CC(=O)C=C12` [Exemestane], the nucleolar normality score by setting is: (1 µM) inactive: 1; (10 µM) inactive: 1.06.
Taken in the same sequence, the figures for `O=P1(N(CCCl)CCCl)NCCCO1` (centres undefined) [Cyclophosphamide Monohydrate] were inactive: 0.997 and inactive: 1.07.
`O=C(Nc1ccccc1)Nc1ccnc(Cl)c1` [Forchlorfenuron (KT-30, CPPU)]: the nucleolar normality score reads like this: (1 µM) inactive: 1.03; (10 µM) inactive: 1.03.
As to `N#CC(C#N)=NNc1ccc(OC(F)(F)F)cc1`, the nucleolar normality score runs as follows: (1 µM) inactive: 1.01; (10 µM) inactive: 1.05.
Taken in the same sequence, the figures for `Cc1sc2c(c1C)C(c1ccc(Cl)cc1)=N[C@@H](CC(=O)OC(C)(C)C)c1nnc(C)n1-2` were inactive: 1.05 and inactive: 1.07.
With `O=C1C2CCN(CC2)C1(CO)CO`, the nucleolar normality score was inactive: 0.996 (1 µM) and inactive: 1.04 (10 µM).
As for `C=C1CCC2C(C=C(C)C(=O)C3(O)CC(C)C(O)C3C1O)C2(C)C` (centres undefined) [Lathyrol], the nucleolar normality score by setting is: (1 µM) inactive: 1.08; (10 µM) inactive: 1.04.
Taken in the same sequence, the figures for `Cc1sc2c(c1C)C(c1ccc(Cl)cc1)=NC(CC(N)=O)c1nnc(C)n1-2` (centres undefined) were inactive: 1.14 and inactive: 1.04.
Taken in the same sequence, the figures for `C/C(O)=C(\C#N)C(=O)Nc1cc(Br)ccc1Br` were inactive: 1.01 and inactive: 1.03.
Taken in the same sequence, the figures for `Cc1cc2c(C(C)C)c(O)c(O)c(C=O)c2c(O)c1-c1c(C)cc2c(C(C)C)c(O)c(O)c(C=O)c2c1O` were inactive: 1.02 and inactive: 0.896.
For the molecule `Cc1cc2c(C(C)C)c(O)c(O)c(C=O)c2c(O)c1-c1c(C)cc2c(C(C)C)c(O)c(O)c(C=O)c2c1O` [gossypol-Acetic acid], the nucleolar normality score is inactive: 1 (1 µM) and inactive: 0.877 (10 µM).
Taken in the same sequence, the figures for `O=c1[nH]c2ccc(Cl)cc2c(N[C@@H]2CN3CCC2CC3)c1-c1nc2ccccc2[nH]1` were active: 0.338 and active: 0.24.
Taken in the same sequence, the figures for `C=CC1CN2CCC1CC2C(O)c1ccnc2ccccc12` (centres undefined) were inactive: 1.06 and inactive: 1.09.
Taken in the same sequence, the figures for `COC1=C[C@]23CCCN2CCc2cc4c(cc2[C@@H]3[C@@H]1O)OCO4` [Cephalotaxine] were inactive: 1.07 and inactive: 0.91.
In the case of `C[C@]12CCC(=O)C(O)=C1CC[C@@H]1[C@@H]2CC[C@]2(C)C(=O)CC[C@@H]12` [Formestane], the nucleolar normality score by setting is: (1 µM) inactive: 1.04; (10 µM) inactive: 1.08.
In the case of `CCOc1ccccc1-n1c(C(C)N2CCN(C(=O)COc3ccc(Cl)cc3)CC2)nc2ccccc2c1=O` (centres undefined) [Erastin], the nucleolar normality score runs as follows: (1 µM) inactive: 0.933; (10 µM) inactive: 1.
As for `Cc1sc2c(c1C)C(c1ccc(Cl)cc1)=N[C@@H](CC(=O)Nc1ccc(O)cc1)c1nnc(C)n1-2`, the nucleolar normality score was active: 0.858 (1 µM) and inactive: 0.958 (10 µM).
